# In all, about 310,000 compounds went through this assay and about 14,000 (4.5%) showed an effect of 50% or more. Effects have a minus sign here. This is one part of the list.
# Molecular target: human ether-à-go-go-related gene (hERG) potassium channel (human, UniProt Q12809)
# Assay: primary screen, population patch clamp on CHO cells stably expressing hERG
# 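Note: peak tail current of the secondary pulse compared with the same well before compound.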
# Sequence of human ether-à-go-go-related gene (hERG) potassium channel (Q12809 whole entry, looked up): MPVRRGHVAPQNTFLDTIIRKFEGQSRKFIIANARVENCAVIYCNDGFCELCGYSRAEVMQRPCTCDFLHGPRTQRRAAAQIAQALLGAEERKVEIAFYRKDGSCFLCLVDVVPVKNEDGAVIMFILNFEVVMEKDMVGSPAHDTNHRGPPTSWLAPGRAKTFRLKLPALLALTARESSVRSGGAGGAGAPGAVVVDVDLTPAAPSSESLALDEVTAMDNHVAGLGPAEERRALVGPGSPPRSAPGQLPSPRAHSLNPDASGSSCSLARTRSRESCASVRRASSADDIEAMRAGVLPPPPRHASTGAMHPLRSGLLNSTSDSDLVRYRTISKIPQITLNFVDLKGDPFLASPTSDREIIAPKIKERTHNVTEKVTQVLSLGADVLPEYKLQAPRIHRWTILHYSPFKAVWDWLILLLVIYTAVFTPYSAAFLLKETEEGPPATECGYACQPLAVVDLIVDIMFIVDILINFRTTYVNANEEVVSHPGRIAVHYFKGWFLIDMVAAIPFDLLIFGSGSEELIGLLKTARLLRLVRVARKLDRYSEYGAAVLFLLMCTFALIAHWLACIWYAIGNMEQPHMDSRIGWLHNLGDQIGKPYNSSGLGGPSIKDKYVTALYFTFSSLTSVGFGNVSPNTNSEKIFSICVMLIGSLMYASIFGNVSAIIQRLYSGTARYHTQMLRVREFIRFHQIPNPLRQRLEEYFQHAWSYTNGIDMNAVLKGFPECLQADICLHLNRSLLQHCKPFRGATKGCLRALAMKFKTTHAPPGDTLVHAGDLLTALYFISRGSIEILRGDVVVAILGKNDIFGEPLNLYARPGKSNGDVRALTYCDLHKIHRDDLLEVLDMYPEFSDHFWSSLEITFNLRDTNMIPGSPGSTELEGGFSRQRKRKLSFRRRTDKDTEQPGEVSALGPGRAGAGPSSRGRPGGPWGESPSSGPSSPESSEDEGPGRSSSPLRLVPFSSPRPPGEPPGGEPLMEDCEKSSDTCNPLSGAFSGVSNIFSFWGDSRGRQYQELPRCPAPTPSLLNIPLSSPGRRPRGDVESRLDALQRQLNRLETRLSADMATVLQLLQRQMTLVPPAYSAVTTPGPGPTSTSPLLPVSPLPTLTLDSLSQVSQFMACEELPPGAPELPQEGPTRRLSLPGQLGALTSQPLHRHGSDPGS
row,SMILES,"hERG current change (%, negative = inhibition) at 10uM [%]"
1,CC12CCC(=O)N1C(C(=O)NCCN1C(=O)S/C(=C\c3ccc(OC(F)F)cc3)C1=O)CS2 (centres unmarked),-27.8
2,S=C(N/N=C/c1ccccc1)N1CCOCC1,10.7
3,O=C(Nc1ccsc1C(=O)N1CCCCCC1)c1ccccc1,-21.1
4,CC(=O)c1cccc(NC(=O)C(C)OC(=O)Cc2c[nH]c3ccccc23)c1 (centres unmarked),-2.32
5,CCC1CCC/C1=N\NC(=O)c1cc(C)[nH]n1 (centres unmarked),4.17
6,Cc1ccc(NC(=O)c2ccco2)cc1C,-16.5
7,CC(NC(=S)N1CCOCC1)c1ccccc1 (centres unmarked),7.19
8,CC(C)CNC(=S)N1CCC(NC(=O)C23CC4CC(CC(C4)C2)C3)CC1,-7.73
9,COc1ccc(/C=C2\SC(=S)N(NC(=O)c3csc4c3CCCC4)C2=O)cc1,-4.99
10,NC(=O)c1nsc(C(=O)N(c2ccccc2)C(C(=O)NC2CCCC2)c2cccs2)c1N (centres unmarked),9.77
11,O=C(c1ccc(N2CCCC2)c([N+](=O)[O-])c1)N1CCN(CCO)CC1,-5.39
12,Clc1ccccc1N=C1NN=C(c2cccs2)CS1,-8.59
13,C=CCNC(=S)N/N=C/c1ccc(N(CC)Cc2ccccc2)cc1,27.2
14,COc1ccc(NC(=O)CSc2nc3ccccc3c(=O)n2CCCN2CCOCC2)c(OC)c1,-34.6
15,Cc1ccc(S(=O)(=O)Cn2nnnc2C(C(C)C)N2CCC(O)CC2)cc1 (centres unmarked),13.7
16,CCC1C(=O)N=C(SCC(=O)Nc2ccc(S(N)(=O)=O)cc2)NC1=O (centres unmarked),7.08
17,C=C(C)C(=O)Nc1cccc(C2=NOC3(C2)C[C@H](C(N)=O)N(C(=O)COc2ccc(Cl)cc2)C3)c1 (some centres unmarked),-2.21
18,Cc1ccc(S(=O)(=O)CCC(=O)OCc2ccc(Cl)cc2)cc1,3.3
19,O=C(O)/C=C/C(=O)NC1CC1,41.9
20,Cc1noc(C)c1Cn1nc(C(=O)O)c2ccccc2c1=O,-9.42
21,Cc1nc(CCNC(=O)Cc2ccc(Cl)cc2)cs1,3.38
22,Oc1ccc(C[C@H]2CNCCN2CCC23CC4CC(CC(C4)C2)C3)cc1,-11.7

row,SMILES,"hERG current change (%, negative = inhibition) at 10uM [%]"
1,CCNC(=S)Nc1ccc(Cl)cc1Cl,-14
2,COc1ccccc1NC(=O)CC1Nc2ccccc2NC1=O (centres unmarked),13.2
3,Cc1cc(C)c(NC(=O)c2c[nH]c(=S)n2-c2ccc(F)cc2)c(C)c1,5.97
4,CCn1c(SCC(=O)Nc2cc(C)on2)nnc1-c1ccc(C)cc1,14.5
5,Cn1nc(C(F)(F)F)c(C#N)c1N1CCN(c2cccc(C(F)(F)F)c2)CC1,3.01
6,COc1cccc(N(CC(=O)NC2CCCCC2)C(=O)c2snc(C(N)=O)c2N)c1,-7.28
7,CCc1ccc(-c2cc(C)no2)cc1S(=O)(=O)N1CCN(c2ccc(OC)cc2)CC1,15.3
8,CCNc1nc(NCC)n2c(SCC(=O)Nc3ccccc3F)nnc2n1,-28.4
9,CCOC(=O)c1c(C)[nH]c(C(=O)OCC(=O)c2ccc(OC)cc2OC)c1C,1.08
10,O=Cc1ccc(-n2cc(C=O)c3ccccc32)cc1,9.63
11,COc1nc(-c2ccc(C)cc2)ccc1-c1noc(-c2ccco2)n1,9.52
12,O=[n+]1cc(-c2cccc3ccccc23)n([O-])c2c1CCC2,-4.44
13,Cc1ccc(SC(C)C(=O)N2CCCC2)cc1 (centres unmarked),5.92
14,CN(C)S(=O)(=O)c1ccc(C(=O)NCc2nnc(SCC(=O)N3CCCC3)o2)cc1,14.1
15,CCCOc1ccc([C@@H]2C3CN(C(=O)OCC)CC=C3C(C#N)=C(N)C2(C#N)C#N)cc1OC (some centres unmarked),8.84
16,CCC(CC)C(=O)Nc1cc(C(=O)NCCc2ccccc2)ccc1Cl,-8.24
17,C/C(=C\C=C\c1ccccc1)C(=O)c1c(C)cc(C)[nH]c1=O,17.7
18,CN(CC(=O)Nc1ccc(F)cc1)C(=O)c1ccc(-c2ccc(Cl)cc2)o1,0.0243
19,COc1ccc(C(=O)Nn2c(CCC(=O)O)ccc2-c2ccc(C)cc2)cc1OC,14.5
20,COc1ccc(-c2csc(NC(=O)C3CCN(c4ncnc5sc(C)c(C)c45)CC3)n2)cc1OC,17.4
21,COc1ccc(S(=O)(=O)NC2CCCCC2)cc1-n1cnnn1,-8.45
22,CC/C(C)=C1\SC(N2CCOCC2)=NC1=O,10.5
